The campaign covered roughly 130,000 compounds. About 1,200 (0.92%) were called active. The inconclusive results got no clear call from the source; some entries with a clear call stand among them for comparison. Calls come from the whole dose curve; as a rule, active = well fitted cell-killing curve with a large enough effect; inconclusive = small, poorly fitted or top-dose-only effect; inactive = no such curve, though single readings can be large or run the other way. Potencies beside an inconclusive call are fits to weak or partial responses and may not hold up.
assay: qHTS Screen for Compounds that Selectively Target Cancer Cells with p53 Mutations: Cytotoxicity of p53ts Cells at the Permissive Temperature; conditions: H1299-p53A138V at 32C, ATP luminescence viability, 24 h; activity change, negative = cytotoxicity: at 46.1 µM (top of the series); note: nearly all actives have a fitted effect of over 55% in size;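 for activity change, negative = cytotoxicity: 0% = DMSO and -100% = full killing by reference compound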
Outline: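 Cells: H1299 p53ts (A138V), 600/well, pre-incubated 16–30 h at 37C. Cpd up to 46 uM, 24 h, 32C. Readout: ATPlite luminescence, 20 min RT. Normalization: DMSO vs tamoxifen 100 uM. AC50 by Hill equation.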
Potency is the fitted concentration of half-maximal effect; tags give direction and shape of the fitted curve.

Structure (SMILES)	Potency	activity change, negative = cytotoxicity
OC(COc1ccc(Cl)c2ccccc12)CN1CCN(c2ccccn2)CC1 (centres undefined)	inconclusive: 31.6 µM [cytotoxic, single point]	
Oc1c(-c2cc(-c3ccco3)[nH]n2)ccc2ccccc12	inconclusive: 12.6 µM [cytotoxic, partial curve]	
NC(=O)c1cc2ccc(O)cc2oc1=NCc1ccccc1	inconclusive: 11.2 µM [cytotoxic, partial curve, poor fit]	
Cn1nnnc1SCc1ccc(C(=O)Nc2nccs2)cc1	inconclusive: 3.16 µM [cytotoxic, full curve]	
CCOC(=O)CNS(=O)(=O)c1cc(-c2nnc(Nc3cccc(O)c3)c3ccccc23)ccc1C	inconclusive: 31.6 µM [cytotoxic, single point]	
CCn1cc(CNC(=O)c2cc(-c3ccc(C)c(C)c3)nc3ccccc23)c(C)n1	inconclusive: 25.1 µM [cytotoxic, single point]	
COc1ccc(C(=O)Nc2cc(OC)ccc2OC)cc1	inconclusive: 12.6 µM [cytotoxic, single point]	
Cn1nnnc1Sc1ncnc2scc(-c3ccc(F)cc3)c12	inconclusive: 31.6 µM [cytotoxic, single point]	
CCN(c1ccccc1)S(=O)(=O)c1nnc(NC(=O)c2cccs2)s1	active: 1 µM	
CN(C)CC(C(=O)c1ccccc1)c1ccccc1 (centres undefined)	inconclusive: 31.6 µM [cytotoxic, single point]	
CC(=O)c1ccc(S(=O)(=O)Nc2cccc(-c3ccc(N4CCCCCC4)nn3)c2)cc1	inconclusive: 10 µM [cytotoxic, partial curve]	
Fc1ccc(-c2nnc(-c3ccc(Cl)cc3Cl)o2)cc1	active: 5.01 µM	
CCOC(=O)CC(NS(=O)(=O)c1ccc2[nH]c3c(c2c1)CCCC3)c1ccccc1Cl (centres undefined)		inactive: 32.3%
CCCCN(C)CCCNC(=O)C1CCN(c2nc3ccc(CC)cc3s2)CC1	active: 12.6 µM	
c1ccc2c(NC3CC3)nc(-c3ccoc3)nc2c1		inactive: 13.4%
O=C(NC1CCCCC1)c1ccc(Cn2c(SCc3ccccc3F)nc3cccnc32)cc1	inconclusive: 12.6 µM [cytotoxic, single point]	
CCn1c(C(=O)NCCc2ccc(OC)c(OC)c2)cc2sc(Cl)cc21		inactive: 1.22%
c1ccc2nc3c(nc2c1)[nH]c1ccccc13	inconclusive: 15.8 µM [cytotoxic, partial curve]	
O=C(c1cnn2ccccc12)N1CCc2ccccc21	inconclusive: 12.6 µM [cytotoxic, partial curve]	
CCOc1ccc(NC(=O)c2ccc(NC(=O)N3CCSc4ncccc43)cc2)cc1	inconclusive: 12.6 µM [cytotoxic, partial curve]	
COc1ccccc1CNC(=O)C1CCCN(c2nc3ccccc3n3cccc23)C1 (centres undefined)		inactive: 7.82%
COCCNC(=O)CN(C(=O)Cn1nnc2ccccc21)c1ccccc1		inactive: 2.56%
CCCCc1n[nH]c2c1/C(=N/O)CC(c1ccccc1)C2 (centres undefined)	inconclusive: 15.8 µM [cytotoxic, partial curve]	
COC(=O)Cc1c(C)c2cc(Cl)c(OC(=O)c3ccco3)cc2oc1=O		inactive: 4.77%
COc1ccc(-c2cc(C(F)(F)F)nc(S(=O)(=O)CCCC(=O)Nc3cccc(O)c3)n2)cc1OC	inconclusive: 31.6 µM [cytotoxic, single point]	

Structure (SMILES)	Potency	activity change, negative = cytotoxicity
CN(C)c1ccc(Nc2nc(-c3cccnc3)cs2)cc1	active: 3.16 µM	
O=C(Nc1ccc(NC(=O)C2CCCCC2)cn1)c1ccco1	active: 3.98 µM	
COC(=O)COc1ccc(S(=O)(=O)Nc2ccccc2C(=O)OC)cc1		inactive: 4.37%
CCOC(=O)c1c(C)oc2ncnc(N3CCN(c4ccccc4OC)CC3)c12		inactive: -9.35%
COc1ccc(C(=O)Nc2nc3ccccc3[nH]2)cc1OC	inconclusive: 20 µM [cytotoxic, single point]	
O=C(NCc1ccco1)c1cc2c(s1)CCCCC2	inconclusive: 15.8 µM [cytotoxic, single point]	
COc1ccc(-c2nc3c4ccccc4n(CC(=O)Nc4cc(F)ccc4F)c(=O)n3n2)cc1		inactive: -4.04%
C=CCOC(=O)C1C(=O)CC(C)(O)C(C(=O)OCC=C)C1c1ccc(OC)cc1 (centres undefined)	inconclusive: 0.398 µM [cytotoxic, full curve, poor fit]	
COc1cc2c(cc1NC(=O)CSCC(=O)O)oc1ccccc12		inactive: -13.1%
CCCCC#Cc1nc(N)c2ncn([C@@H]3O[C@@H](C(=O)NCC)[C@H](O)[C@@H]3O)c2n1		inactive: 8.63%
CC(=O)Nc1nonc1-c1nc2ccccc2n1Cc1ccccc1Br	inconclusive: 15.8 µM [cytotoxic, single point]	
CCOC(=O)c1nc(-c2ccc3c(c2)OCO3)[nH]c1C	inconclusive: 10 µM [cytotoxic, partial curve]	
COc1ccc(-c2nncnn2)cc1	inconclusive: 0.0158 µM [cytotoxic, full curve, poor fit]	
COc1ccc(S(=O)(=O)N2CCN(CC(=O)Nc3cccc(F)c3)CC2)cc1		inactive: -2.21%
O=C(CSc1nnc2[nH]c(=O)cc(-c3ccccc3)n12)Nc1cc(C(F)(F)F)ccc1Cl	active: 0.631 µM	
O=C(NCC1CCCO1)c1nc2c(nnn2Cc2ccccc2Cl)c(=O)[nH]1 (centres undefined)		inactive: -11.6%
Cc1ccc(Nc2nc(C3CC3)cs2)cc1	inconclusive: 15.8 µM [cytotoxic, single point]	
COc1ccc2[nH]c3nc(SC(C)C)nnc3c2c1	active: 15.8 µM	
CCOC(=O)c1cnc2ccc(Cl)cc2c1Nc1ccc(N2CCOCC2)cc1		inactive: -27.5%
CCCN(CCC)CCNC(=O)C1CCN(c2nc3ccc(CC)cc3s2)CC1	active: 12.6 µM	
CCOC(=O)Cn1c(=O)oc2cc(S(=O)(=O)NCCCc3ccccc3)ccc21	inconclusive: 25.1 µM [cytotoxic, single point]	
O=C(NCc1ccccc1Cl)c1cc2cccc3c2n1CCS3	inconclusive: 1 µM [cytotoxic, full curve, poor fit]	
COc1ccccc1-c1nc(-c2ccc(C)nc2OC)no1	inconclusive: 12.6 µM [cytotoxic, single point]	
COc1cc(OC)cc(-c2nc3cc(C)ccc3o2)c1	inconclusive: 31.6 µM [cytotoxic, single point]	
O=C(N/N=C/c1cccs1)c1ccc2c(c1)OCO2	active: 8.91 µM	

Structure (SMILES)	Potency	activity change, negative = cytotoxicity
Cc1nc2cc(CO)ccc2s1		inactive: 1.7%
CCN(c1ccc(C)cc1C)S(=O)(=O)c1nnc(NC(=O)c2ccccc2OC)s1		inactive: -1.49%
O=[N+]([O-])c1ccc2c(c1)Cc1cc(N=Cc3ccc4c(c3)OCO4)ccc1-2		inactive: 3.5% [at 9.22 µM]
CC(C)c1ccc(NC(=O)C2CCCN(S(=O)(=O)c3ccc4[nH]c(=O)ccc4c3)C2)cc1 (centres undefined)	inconclusive: 15.8 µM [cytotoxic, single point]	
CCc1ccc2occ(CC(=O)Nc3sc4c(c3C(=O)OC)CCC4)c2c1	inconclusive: 12.6 µM [cytotoxic, single point]	
CN(C)C(=O)c1ccc(-c2nc(-n3ccnc3)c3ccccc3n2)cc1	active: 7.94 µM	
Cc1sc2nc3c4ccccc4c(NCc4ccco4)nn3c(=O)c2c1C	inconclusive: 10 µM [cytotoxic, partial curve]	
Cc1c(C(=O)Nc2ccccn2)oc2ccccc12	inconclusive: 12.6 µM [cytotoxic, partial curve]	
Cc1ccc(OCC(=O)Nc2ccc(S(=O)(=O)N(Cc3ccccc3)c3ccccc3)cc2)cc1	inconclusive: 12.6 µM [cytotoxic, single point]	
CCc1cccc(C)c1NC(=O)c1cn2c3c(ccc(Cl)c3c1=O)OC(C)C2 (centres undefined)		inactive: -1.74%
Cc1cccc(N2CCN(c3ncnc4onc(C)c34)CC2C)c1 (centres undefined)	inconclusive: 20 µM [cytotoxic, single point]	
O=C(CC1(O)C(=O)N(Cc2ccccc2)c2ccc(Br)cc21)c1ccccc1 (centres undefined)	inconclusive: 35.5 µM [cytotoxic, single point]	
Cc1cccc(OCC(=O)Nc2ccccc2OCc2cc(=O)n3cc(C)ccc3n2)c1		inactive: -5.45%
COc1ccc(-c2nc3cc(NC(=O)c4cc5ccccc5o4)ccc3o2)cc1		inactive: 3.44%
Cc1ccccc1Nc1c(-c2ccc(N3CCOCC3)cc2)nc2ccc(Cl)cn12	inconclusive: 12.6 µM [cytotoxic, partial curve]	
Cc1ccc(C)c(Nc2nn3c(=O)c4ccc(C(=O)NCc5cccs5)cc4nc3s2)c1	active: 15.8 µM	
O=C(/C=C/c1ccc(O)c(O)c1)O[C@@H](C(=O)O)[C@@H](OC(=O)/C=C/c1ccc(O)c(O)c1)C(=O)O	inconclusive: 0.0063 µM [cytotoxic, full curve, poor fit]	
CCN(c1ncnc2c1cnn2-c1cccc(Cl)c1)C1CCCCC1	inconclusive: 12.6 µM [cytotoxic, partial curve]	
O=C(Nc1ccc(-c2nc3ccccc3o2)cc1)C1CCCO1 (centres undefined)	active: 15.8 µM	
Cc1ccnc(NC(=O)Nc2ccc(F)cc2)c1	inconclusive: 12.6 µM [cytotoxic, partial curve]	
COC(=O)CSc1nsc(SCC(=O)OC)c1C#N	inconclusive: 25.1 µM [cytotoxic, single point]	
COc1ccc(Cn2nnnc2C(C(C)C)N2CCN(c3ccccc3OC)CC2)cc1 (centres undefined)		inactive: 0.799%
CCOC(=O)c1c(Cc2ccc(Cl)cc2)c[nH]c1C	inconclusive: 0.447 µM [cytotoxic, partial curve, poor fit]	
C=Cc1ccc(Cn2c(C(=O)O)c(CNCc3ccccc3)c3ccc(C)cc32)cc1	inconclusive: 15.8 µM [cytotoxic, single point]	
